Assay results reported in PubChem BioAssay AID488969 (Vanderbilt High Throughput Screening Facility, 2010).
The full ranking holds about 110,000 compounds; the median of “z-score” is about -0.1, and the highest 2% start at about 2. The list shows a part of the results. Calls of active or inactive are those of the source.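 Rule for the calls: active = z-score in the third read window above 3 or below -3; inactive = the rest.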

target: Metabotropic glutamate receptor 8 (Rattus norvegicus) (UniProt P70579); test: mGluR8 Gi/Go-coupled signaling modulation – cell-based, rat, thallium flux, HTS, primary screen (AID 488969); details: HEK293 rat mGluR8, GIRK (G protein-gated inwardly rectifying potassium channel) thallium flux, FluoZin2; at 10 µM; stronger effect = higher value; submaximal glutamate (EC20) added with thallium
Sequence of UniProt P70579 (P70579 whole entry, looked up): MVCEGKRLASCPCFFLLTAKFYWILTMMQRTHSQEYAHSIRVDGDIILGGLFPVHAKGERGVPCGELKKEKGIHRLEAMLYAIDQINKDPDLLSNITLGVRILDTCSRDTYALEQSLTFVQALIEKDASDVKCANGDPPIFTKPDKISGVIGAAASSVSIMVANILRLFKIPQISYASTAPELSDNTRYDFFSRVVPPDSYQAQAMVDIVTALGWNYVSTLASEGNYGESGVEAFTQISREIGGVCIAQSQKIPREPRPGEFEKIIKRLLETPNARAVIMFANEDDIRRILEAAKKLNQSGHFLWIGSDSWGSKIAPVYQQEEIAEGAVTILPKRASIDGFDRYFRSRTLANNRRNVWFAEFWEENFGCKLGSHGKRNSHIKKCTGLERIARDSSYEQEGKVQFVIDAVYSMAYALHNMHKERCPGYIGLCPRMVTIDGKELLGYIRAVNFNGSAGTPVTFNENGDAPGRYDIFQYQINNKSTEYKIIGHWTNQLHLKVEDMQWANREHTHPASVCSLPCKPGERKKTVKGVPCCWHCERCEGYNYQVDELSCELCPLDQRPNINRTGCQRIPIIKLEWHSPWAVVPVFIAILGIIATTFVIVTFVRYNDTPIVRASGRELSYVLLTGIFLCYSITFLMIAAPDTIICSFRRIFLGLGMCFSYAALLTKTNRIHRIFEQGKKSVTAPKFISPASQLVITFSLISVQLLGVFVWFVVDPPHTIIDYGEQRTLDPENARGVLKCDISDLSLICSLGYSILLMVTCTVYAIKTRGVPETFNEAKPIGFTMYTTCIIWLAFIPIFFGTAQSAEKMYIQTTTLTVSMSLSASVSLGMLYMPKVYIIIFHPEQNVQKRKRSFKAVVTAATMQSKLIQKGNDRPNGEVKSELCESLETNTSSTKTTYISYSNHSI

Q: Which z-score does the source give for CCCCOC(=O)Nc1nnc(-c2ccccc2OC)s1 here?
A: The z-score was -0.938.

Q: O=C(CN1CCCC1)Nc1ccc(Oc2ccc(NC(=O)CN3CCCC3)cc2)cc1 was tested. Which z-score did it give?
A: Its z-score is 2.7.

Q: CC1Cn2c(nnc2C23CC4CC(CC(C4)C2)C3)S1 (stereo unspecified) was tested. Which z-score did it give?
A: The z-score was -0.17.

Q: COC(=O)Nc1ccc(S(=O)(=O)N2CCC(C)CC2)cc1 was tested. Which z-score did it give?
A: The z-score was -0.128.

Q: Which z-score does the source give for O=C1CN(C(=O)c2ccco2)C(c2ccccc2)c2cc(Cl)ccc2N1 (stereo unspecified) here?
A: Its z-score is -0.465.

Q: With CC1=CC(C)(C)n2c(O)c(N=NC(N)=S)c3cc(C)cc1c32 as the molecule, how does the z-score read?
A: The z-score was 1.04.

Q: Which z-score does the source give for O=C1CCN(S(=O)(=O)c2ccc(Cl)cc2)N1 here?
A: The z-score was 1.08.

Q: Which z-score does the source give for O=C(c1ccco1)N1CCN(c2ncnc3c(-c4ccccc4)nsc23)CC1 here?
A: Its z-score is -0.259.

Q: O=C(NNS(=O)(=O)c1ccc([N+](=O)[O-])cc1)c1cnn(-c2ccccc2)c1-n1cccc1 was tested. Which z-score did it give?
A: Its z-score is 0.239.

Q: With C#CC(C)(C)NC(=O)CSc1nc2c(c(=O)n(C)c(=O)n2C)n1CCCC as the molecule, how does the z-score read?
A: The z-score was -0.341.

Q: CCCN1C2CCCC1CC(NC(=O)Nc1cccc(C(C)=O)c1)C2 (stereo unspecified) was tested. Which z-score did it give?
A: The z-score was 0.188.

Q: Which z-score does the source give for O=C(Nc1cccnc1)C1CC(c2ccccc2O)=NO1 (stereo unspecified) here?
A: Its z-score is -0.19.

Q: Which z-score does the source give for OCCSc1nc(-c2ccccc2)nc2c1CCC2 here?
A: The z-score was -0.107.

Q: C=C(C)CNC(=S)N/N=C(\C)c1ccc(-n2ccnc2)cc1 was tested. Which z-score did it give?
A: The z-score was -0.342.

Q: How did the z-score turn out when Cc1ccc(CNC(=O)C2CCCN(S(=O)(=O)c3c(C)n[nH]c3C)C2)cc1 (stereo unspecified) was run?
A: Its z-score is 0.211.

Q: For CC(=O)Nc1ccc(S(=O)(=O)NCc2ccc3c(c2)cc(C)n3C)cc1, which z-score is on record?
A: The z-score was 0.208.

Q: Cc1cc(C)c(-c2csc(NC(=O)C3=NN(c4ccccc4)C(=O)CC3)n2)c(C)c1 was tested. Which z-score did it give?
A: The z-score was -0.758.

Q: Cc1cccc(N=C2Sc3nc4c(C)c(C)ccc4cc3CN2CCN2CCOCC2)c1 was tested. Which z-score did it give?
A: The z-score was 0.611.

Q: How did the z-score turn out when CCc1ccccc1NC(=O)/C(C#N)=C\c1ccc(Sc2ccccc2)o1 was run?
A: Its z-score is -0.252.

Q: COc1ccccc1NS(=O)(=O)c1cc(NC(=O)Nc2ccccc2)ccc1N1CCCCC1 was tested. Which z-score did it give?
A: The z-score was -0.071.

Q: With CCn1c(SCC(=O)c2ccc(CNC(C)=O)o2)nnc1-c1cccs1 as the molecule, how does the z-score read?
A: The z-score was -0.715.

Q: With O=C(COc1ccccc1)NNC(=S)NC(=O)c1ccc(Cl)cc1Cl as the molecule, how does the z-score read?
A: Its z-score is active: 5.19.

Q: COc1ccc(CCN2C(=O)CC(Nc3ccc(N4CCOCC4)cc3)C2=O)cc1OC (stereo unspecified) was tested. Which z-score did it give?
A: The z-score was -0.168.

Q: Which z-score does the source give for CCCCN1C(=O)/C(=C/C=C2\N(C)c3ccccc3C2(C)C)SC1=S here?
A: The z-score was 0.217.

Q: How did the z-score turn out when CC(=O)Nc1ccc(N/C=C/C(=O)C(C)(C)C)cc1 was run?
A: Its z-score is 0.017.

Q: CC(C)CNC(=O)NC1C(NC(=O)NCC(C)C)N(C)C(=O)N1C (stereo unspecified) was tested. Which z-score did it give?
A: Its z-score is 0.0762.

Q: For CCOC(=O)c1[nH]c(C)c(C(=O)Nc2ccc(F)cc2)c1C, which z-score is on record?
A: The z-score was -0.184.

Q: Which z-score does the source give for O=C(Nc1sc2c(c1C(=O)NC1CC1)CCCCCC2)c1ccco1 here?
A: The z-score was -0.371.

Q: For CCCNC(=O)Cc1c(O)c2ccccc2[nH]c1=O, which z-score is on record?
A: Its z-score is 0.0931.

Q: O=C(C/C=N/OCc1ccc(Cl)cc1Cl)c1ccccc1 was tested. Which z-score did it give?
A: The z-score was -0.222.

Q: For COc1ccc([C@H]2[C@H](C(=O)OC(C)(C)C)N3N=Cc4ccccc4C3C23C(=O)c2ccccc2C3=O)c(OC)c1 (stereo partly specified), which z-score is on record?
A: Its z-score is -0.179.

Q: Which z-score does the source give for CNC(=O)c1ccc(-c2ccc(F)cc2)s1 here?
A: The z-score was -0.24.

Q: Which z-score does the source give for S=C(Nc1ccc(Cl)cc1)NC1CC2CCCC(C1)N2C1CCCC1 (stereo unspecified) here?
A: The z-score was 0.0783.

Q: C=CCSc1ncnc2sc(C)c(C)c12 was tested. Which z-score did it give?
A: Its z-score is 0.751.

Q: With O=C(CSc1ncccn1)NN=C1CCCCCCC1 as the molecule, how does the z-score read?
A: Its z-score is 0.0617.

Q: Which z-score does the source give for COc1cc(-c2nc3cnccn3c2Nc2ccc(C(C)C)cc2)ccc1O here?
A: Its z-score is -0.148.

Q: How did the z-score turn out when CSc1ccc(NC(=O)NCCN2CCc3ccccc3C2)cc1 was run?
A: The z-score was -0.413.

Q: How did the z-score turn out when CNC(=O)N(C1=NCC(C)S1)c1ccc(F)cc1F (stereo unspecified) was run?
A: Its z-score is -0.867.

Q: With COc1ccc(OCc2nnc3n2N=C(c2ccc(OC)cc2)CS3)cc1 as the molecule, how does the z-score read?
A: The z-score was -0.252.

Q: Which z-score does the source give for Cc1cc(C)nc(-n2nc(C)c(Br)c2Nc2ccc(Br)cc2)n1 here?
A: Its z-score is 0.303.

Q: With CC(C)N(C(=O)COC(=O)c1cc(Cl)cc(Cl)c1N)C(C)C as the molecule, how does the z-score read?
A: The z-score was -0.0515.

Q: Cc1cc(C(=O)CSCCCn2c(=O)[nH]c3ccccc32)c(C)n1C was tested. Which z-score did it give?
A: The z-score was 0.0855.

Q: N#CNC(N)=Nc1cccc(Cl)c1 was tested. Which z-score did it give?
A: The z-score was -0.122.

Q: With CCOc1ccc(NS(=O)(=O)c2cc(Cl)ccc2OC)cc1 as the molecule, how does the z-score read?
A: Its z-score is -0.0904.

Q: Which z-score does the source give for CC(/C=N\NC(=O)CN1CCN(Cc2ccccc2)CC1)=C\c1ccco1 here?
A: Its z-score is -0.153.

Q: How did the z-score turn out when Cn1cccc1C(=O)N1CCN(c2cccc(C(F)(F)F)c2)CC1 was run?
A: Its z-score is -0.386.

Q: Which z-score does the source give for COc1ccc(NC(=O)c2ccco2)cc1NC(=O)c1cccs1 here?
A: The z-score was -0.36.

Q: How did the z-score turn out when CCCNS(=O)(=O)c1ccc(OC)c(Cl)c1Cl was run?
A: Its z-score is -0.104.

Q: How did the z-score turn out when Cc1ccc(Oc2ccc(Cl)cc2NC(=O)c2ccc(F)cc2F)cc1 was run?
A: The z-score was -0.0415.

Q: Clc1ccccc1CN(Cc1ccccc1)c1ncnc2nc[nH]c12 was tested. Which z-score did it give?
A: Its z-score is 0.535.

Q: With Cc1ccc2nc(Cc3ccc(N)cc3)[nH]c2c1 as the molecule, how does the z-score read?
A: Its z-score is -0.202.

Q: For COc1cc(C)nc(OCCNS(=O)(=O)c2cc(C)ccc2C)n1, which z-score is on record?
A: Its z-score is 0.217.

Q: How did the z-score turn out when COc1cc(Br)cc(/C=N/NC(=O)Cc2ccc(C(F)(F)F)cc2[N+](=O)[O-])c1O was run?
A: Its z-score is -0.211.

Q: With O=C(NCCCNC(=O)c1ccco1)c1ccco1 as the molecule, how does the z-score read?
A: Its z-score is -1.09.

Q: With Cc1ccc(S(=O)(=O)C(C#N)c2nc3ccccc3nc2N2CC(C)OC(C)C2)cc1C (stereo unspecified) as the molecule, how does the z-score read?
A: The z-score was -0.185.

Q: Which z-score does the source give for O=C(CS(=O)(=O)c1cn(Cc2ccc(Cl)cc2)c2ccccc12)N1CCCCC1 here?
A: The z-score was -0.155.

Q: With Cn1c(=O)oc2cc(S(=O)(=O)NC(Cc3ccccc3)C(=O)N3CCCCC3)ccc21 (stereo unspecified) as the molecule, how does the z-score read?
A: Its z-score is -0.355.

Q: With CCOc1cc(/C=C2\SC(=O)N=C2N)ccc1O as the molecule, how does the z-score read?
A: The z-score was -0.108.

Q: With CC1CC(C)CN(C(=O)c2cn(C)c3ccc(S(=O)(=O)N(C)C)cc3c2=O)C1 (stereo unspecified) as the molecule, how does the z-score read?
A: The z-score was -0.0944.

Q: Which z-score does the source give for CC(C)NC(=O)c1onc(CSc2cccc(F)c2)c1C(=O)O here?
A: Its z-score is -0.127.

Q: With Cc1cc(NC(=O)c2cccc(S(=O)(=O)N3CCCC3)c2)no1 as the molecule, how does the z-score read?
A: The z-score was 0.0735.

Q: For CSC1=NSC2=NC(=O)/C(=C/c3coc4ccccc4c3=O)C(=N)N12, which z-score is on record?
A: Its z-score is active: 10.4.

Q: O=C1CC(O)(C(F)F)Oc2ccc3ccccc3c21 (stereo unspecified) was tested. Which z-score did it give?
A: The z-score was 0.416.

Q: Which z-score does the source give for CCCOc1ccc(CNC(=O)Cn2c(=O)oc3ccccc32)cc1 here?
A: The z-score was -0.588.

Q: For O=C(O)CSc1ccccc1C(=O)O, which z-score is on record?
A: The z-score was -0.242.

Q: Cc1cccc(Cn2c(N(C)CCO)nc3c2c(=O)[nH]c(=O)n3C)c1 was tested. Which z-score did it give?
A: The z-score was -0.225.

Q: For O=S(NCc1ccccc1)C12CC3CC(CC(C3)C1)C2 (stereo unspecified), which z-score is on record?
A: Its z-score is 0.0757.

Q: For CCOC(=O)N1CCC(N2C(=O)c3ccccc3C2Nc2c(C)cccc2C)CC1 (stereo unspecified), which z-score is on record?
A: The z-score was -0.177.

Q: C=CCN(c1ccc(C(N)=O)cc1)S(C)(=O)=O was tested. Which z-score did it give?
A: Its z-score is -0.156.

Q: CCC(C)(C)NC(=O)C(c1ccccc1)N(C(=O)c1csnn1)C1CC1 (stereo unspecified) was tested. Which z-score did it give?
A: Its z-score is 0.663.

Q: For CN(CC(=O)Nc1ccc(F)cc1)C(=O)COc1ccc(C(=O)c2ccccc2)cc1, which z-score is on record?
A: Its z-score is 0.555.
